# PubChem BioAssay AID1508623 (National Center for Advancing Translational Sciences (NCATS), 2021)
# The campaign covered roughly 48,000 compounds. About 450 (0.94%) were called active. Another 19% or so got no clear call; they are omitted. The call rests on the fitted dose curve; in most records, active means well fitted inhibition curve with a large enough effect; inconclusive means small, poorly fitted or top-dose-only effect; inactive means no such curve, though single readings can be large or run the other way. The list shows a part of the results.
# Assay: Primary qHTS for Identification of Small Molecule Inhibitors of Huntingtin Promoter Activity; further: nearly all actives have a fitted effect of over 50% in size
# Conditions: HEK293 HTT promoter firefly luciferase reporter (activity 0% = vehicle and -100% = no light), 24 h; series mostly up to 57.5 µM; activity change, negative = inhibition: at the top concentration
# Outline: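 Firefly luciferase readout (Dual-Glo, 10 min RT) after 24 h, 37 °C compound exposure (final up to 57.5 uM) of HEK293 reporter cells cultured 24 h beforehand; PTC124 at 50 uM final as control inhibitor; activity scaled vehicle 0%, zero RLU -100%.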
# Potency means the concentration at half of the fitted maximal effect.
Structure (SMILES),"activity change, negative = inhibition",Potency
CC1=CC(=O)c2ccccc2C1=O,inactive,–
CCN(C(=O)c1cc2cc(Br)cc(OC)c2oc1=O)c1ccccc1,inactive: -12.9%,–
O=C(NC1CCCCCC1)c1ccc(CS(=O)c2ccc(Br)cc2)o1 (stereo not given),inactive: -32.4%,–
COc1cccc(C2c3c(-c4ccccc4O)n[nH]c3C(=O)N2Cc2cccnc2)c1 (stereo not given),inactive: -24.7%,–
CCc1ccccc1NC(=O)Cn1c(=O)n(-c2ccc(C)c(C)c2)c(=O)c2oc3ccccc3c21,inactive: -5.78%,–
COc1ccc(CCNc2nc3ccccc3c3nc(-c4cccc(C)c4)nn23)cc1OC,inactive: 27%,–
Cc1ccc(CCNC(=O)c2cccc(Nc3nc4ccccc4nc3-n3nc(C)cc3C)c2)cc1,inactive: -9.35%,–
COc1ccc(S(=O)(=O)NCCc2sc(-c3cccc(C)c3)nc2C)cc1,inactive: -29.7%,–
Cc1nn(CC(=O)N2CCN(c3cccc(Cl)c3)CC2)c(=O)c2c1sc1ccccc12,inactive: -9.49%,–
CC(C)CCNC(=O)c1ccc(Cn2c(SCC(N)=O)nc3ccccc3c2=O)cc1,inactive: -1.98%,–
O=C1COc2cc(S(=O)(=O)CCC(=O)N3CCN(c4ccccc4)CC3)c(Cl)cc2N1,inactive: -20.9%,–
Cc1ccc(S(=O)(=O)NCCc2nnc3ccc(SCC(=O)Nc4ccc(OC(F)(F)F)cc4)nn23)cc1,inactive: -21.5%,–
CCCc1ccc(-c2ccc(C(=O)Oc3ccc(Br)cc3)cc2)nc1,inactive: 1.28%,–
CCOc1ccc(NC(=O)Cn2c(=O)c(CNc3ccccc3)cc3cc4c(cc32)OCCO4)cc1,inactive: -25.4%,–
COC(=O)c1ccc(CSc2nc3c([nH]c4ccccc43)c(=O)n2-c2cc(C)cc(C)c2)o1,inactive: -23.5%,–
CN(C(=O)Cn1ncc2c1-c1ccccc1OC2)c1ccc(Br)cc1,inactive: -25%,–
N=C(N)N1CCc2ccccc2C1,inactive: -1.08% [at 6.01 µM],–
CCCCCn1c(CNC(=O)c2ccc(F)cc2)nc2ccccc21,inactive: -11.6%,–
CN(C)C1(CNC(=O)COc2ccc(C(C)(C)C)cc2)CCCCC1,inactive: -15.3%,–
CCOC(=O)c1c(C)[nH]c(C)c1S(=O)(=O)N1CCC(C(=O)NCc2ccc(N(C)C)cc2)CC1,inactive: -7.66%,–
CCCCCn1c(-c2cccc(C)c2)nc2ccccc21,inactive: -9.45%,–
O=C(Nc1ccc2c(c1)OCO2)c1cc(-c2ccc(Cl)cc2)on1,inactive: 0.611%,–
COc1ccccc1OCC(=O)Nc1c(C(=O)c2ccc(C)cc2)oc2ccccc12,inactive: -7.22%,–
COc1ccc(OC)c(CCNC(=O)C(C)n2c(C)c3cnn(-c4ccccc4)c(=O)c3c2C)c1 (stereo not given),inactive: -11.6%,–
COc1ccc(Cl)cc1C(=O)Nc1c2c(nn1-c1ccc(Cl)cc1)CS(=O)(=O)C2,inactive: -0.939%,–

Structure (SMILES),"activity change, negative = inhibition",Potency
COc1ccc(Cl)cc1NC(=O)CSc1nc(=O)[nH]c2c1CCCC2,inactive: -12.3%,–
COc1ccccc1NC(=O)c1oc2ccccc2c1NC(=O)COc1ccccc1OC,inactive: 4.74%,–
CCOc1ccc(NC(=O)Cn2cc(C(=O)c3ccccc3)c(=O)c3cc4c(cc32)OCO4)cc1,inactive: 6.74%,–
Cc1ccc(Cn2c(=O)n(-c3ccc(C)c(C)c3)c(=O)c3c(C)c(C)sc32)cc1,inactive: -18.3%,–
Cc1ccc2oc(-c3ccc(NC(=O)c4cccc(F)c4)c(C)c3)nc2c1,inactive: 1.32%,–
CC(=O)N1c2c(cc(Br)cc2S(=O)(=O)NCc2ccccc2Cl)CC1C (stereo not given),inactive: -20.4%,–
COc1ccc(NC(=O)c2cc(C)nc3c2c(C)nn3-c2cccc(Cl)c2C)c(OC)c1,inactive: -20.1%,–
CN(C)CCOc1ccccc1Cc1ccccc1,inactive: 1.57%,–
COc1cc(NC(=O)N2CCC(CN3CCc4ccccc4C3)CC2)cc(OC)c1,inactive: -23.5%,–
CCOc1ccc(OCC)c(NC(=O)c2csc3c2CCCC3)c1,inactive: 0.927%,–
CCOc1cc(Cl)c(S(=O)(=O)n2cc(C)nc2CC)cc1Cl,–,active: 15.8 µM
CCN(CCCCOC(=O)c1ccc(OC)c(OC)c1)C(C)Cc1ccc(OC)cc1 (stereo not given),inactive: 7.64%,–
O=C(NCC(c1ccco1)S(=O)(=O)c1cccs1)c1ccc(C(F)(F)F)cc1 (stereo not given),inactive: -23.1%,–
COc1cccc(NC(=O)Nc2cc(-c3cn4cccnc4n3)ccc2OC)c1,inactive: 50.7%,–
CCn1cc2nc(SCc3ccccc3)n(Cc3ccc(C)cc3)c(=O)c2n1,inactive: -12.3%,–
Cc1cc(C(C)(C)C)cc(C)c1CC1=NCCN1,inactive,–
Clc1ccc(-c2noc3ncnc(N4CCCCC4)c23)cc1,inactive: -29.3%,–
COc1ccc(-c2noc(CSc3nnc(C)n3-c3ccc(C)cc3)n2)cc1,inactive: -24.2%,–
COc1ccc(N2CC(C(=O)Nc3ccccc3-c3nc(-c4ccc(C)cc4)no3)CC2=O)cc1 (stereo not given),inactive: 6.16%,–
CC(C)(CO)[C@@H](O)C(=O)NCCC(=O)O,inactive: -7.62%,–
CCCSc1nc2c(c(=O)[nH]1)C(c1ccc(O)c(OCC)c1)CC(=O)N2 (stereo not given),inactive: -20.8%,–
COc1ccc(C(=O)NCCc2nc3ccccc3[nH]2)cc1,inactive: -4.26%,–
CCOc1ccc(C(CC(=O)Nc2ccc(C(=O)OC)cc2)N2Cc3ccccc3C2=O)cc1OC (stereo not given),inactive: -14.3%,–
CC(C)(C)c1ccc(OCc2cc(=O)n3c4c(sc3n2)CCCC4)cc1,inactive: -7.42%,–
Cc1ccccc1CSCc1ccc(C(=O)NCCc2ccccc2)o1,inactive: -13.6%,–
